In assay [1] the target is T1, GFP-SNX21 (N-terminal GFP-tagged full-length human sorting nexin-21) (human) (UniProt Q969T3).
T1 sequence: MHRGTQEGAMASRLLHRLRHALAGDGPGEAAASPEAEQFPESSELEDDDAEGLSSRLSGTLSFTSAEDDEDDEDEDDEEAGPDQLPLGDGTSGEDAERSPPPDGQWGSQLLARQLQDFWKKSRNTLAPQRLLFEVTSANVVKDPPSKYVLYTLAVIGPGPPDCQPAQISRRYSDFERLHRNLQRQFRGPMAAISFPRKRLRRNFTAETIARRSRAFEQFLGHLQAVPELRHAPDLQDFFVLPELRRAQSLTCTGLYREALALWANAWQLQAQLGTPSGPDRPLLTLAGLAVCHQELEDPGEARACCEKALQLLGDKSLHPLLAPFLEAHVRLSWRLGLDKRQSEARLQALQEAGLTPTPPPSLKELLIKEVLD
Nature of the assay: co-IP; GFP-nanotrap precipitation of GFP-SNX21 co-expressed with Flag-tagged Htt variants in HEK293-T cells; SDS-PAGE and western blot. A general note: A western blot detects proteins with antibodies after separation by electrophoresis.

By UniProt entry, the sequences of proteins in these tests, tags left out. Where a name states a change or a piece, a line headed by the entry shows the natural chain unless it says otherwise.
UniProt P42858: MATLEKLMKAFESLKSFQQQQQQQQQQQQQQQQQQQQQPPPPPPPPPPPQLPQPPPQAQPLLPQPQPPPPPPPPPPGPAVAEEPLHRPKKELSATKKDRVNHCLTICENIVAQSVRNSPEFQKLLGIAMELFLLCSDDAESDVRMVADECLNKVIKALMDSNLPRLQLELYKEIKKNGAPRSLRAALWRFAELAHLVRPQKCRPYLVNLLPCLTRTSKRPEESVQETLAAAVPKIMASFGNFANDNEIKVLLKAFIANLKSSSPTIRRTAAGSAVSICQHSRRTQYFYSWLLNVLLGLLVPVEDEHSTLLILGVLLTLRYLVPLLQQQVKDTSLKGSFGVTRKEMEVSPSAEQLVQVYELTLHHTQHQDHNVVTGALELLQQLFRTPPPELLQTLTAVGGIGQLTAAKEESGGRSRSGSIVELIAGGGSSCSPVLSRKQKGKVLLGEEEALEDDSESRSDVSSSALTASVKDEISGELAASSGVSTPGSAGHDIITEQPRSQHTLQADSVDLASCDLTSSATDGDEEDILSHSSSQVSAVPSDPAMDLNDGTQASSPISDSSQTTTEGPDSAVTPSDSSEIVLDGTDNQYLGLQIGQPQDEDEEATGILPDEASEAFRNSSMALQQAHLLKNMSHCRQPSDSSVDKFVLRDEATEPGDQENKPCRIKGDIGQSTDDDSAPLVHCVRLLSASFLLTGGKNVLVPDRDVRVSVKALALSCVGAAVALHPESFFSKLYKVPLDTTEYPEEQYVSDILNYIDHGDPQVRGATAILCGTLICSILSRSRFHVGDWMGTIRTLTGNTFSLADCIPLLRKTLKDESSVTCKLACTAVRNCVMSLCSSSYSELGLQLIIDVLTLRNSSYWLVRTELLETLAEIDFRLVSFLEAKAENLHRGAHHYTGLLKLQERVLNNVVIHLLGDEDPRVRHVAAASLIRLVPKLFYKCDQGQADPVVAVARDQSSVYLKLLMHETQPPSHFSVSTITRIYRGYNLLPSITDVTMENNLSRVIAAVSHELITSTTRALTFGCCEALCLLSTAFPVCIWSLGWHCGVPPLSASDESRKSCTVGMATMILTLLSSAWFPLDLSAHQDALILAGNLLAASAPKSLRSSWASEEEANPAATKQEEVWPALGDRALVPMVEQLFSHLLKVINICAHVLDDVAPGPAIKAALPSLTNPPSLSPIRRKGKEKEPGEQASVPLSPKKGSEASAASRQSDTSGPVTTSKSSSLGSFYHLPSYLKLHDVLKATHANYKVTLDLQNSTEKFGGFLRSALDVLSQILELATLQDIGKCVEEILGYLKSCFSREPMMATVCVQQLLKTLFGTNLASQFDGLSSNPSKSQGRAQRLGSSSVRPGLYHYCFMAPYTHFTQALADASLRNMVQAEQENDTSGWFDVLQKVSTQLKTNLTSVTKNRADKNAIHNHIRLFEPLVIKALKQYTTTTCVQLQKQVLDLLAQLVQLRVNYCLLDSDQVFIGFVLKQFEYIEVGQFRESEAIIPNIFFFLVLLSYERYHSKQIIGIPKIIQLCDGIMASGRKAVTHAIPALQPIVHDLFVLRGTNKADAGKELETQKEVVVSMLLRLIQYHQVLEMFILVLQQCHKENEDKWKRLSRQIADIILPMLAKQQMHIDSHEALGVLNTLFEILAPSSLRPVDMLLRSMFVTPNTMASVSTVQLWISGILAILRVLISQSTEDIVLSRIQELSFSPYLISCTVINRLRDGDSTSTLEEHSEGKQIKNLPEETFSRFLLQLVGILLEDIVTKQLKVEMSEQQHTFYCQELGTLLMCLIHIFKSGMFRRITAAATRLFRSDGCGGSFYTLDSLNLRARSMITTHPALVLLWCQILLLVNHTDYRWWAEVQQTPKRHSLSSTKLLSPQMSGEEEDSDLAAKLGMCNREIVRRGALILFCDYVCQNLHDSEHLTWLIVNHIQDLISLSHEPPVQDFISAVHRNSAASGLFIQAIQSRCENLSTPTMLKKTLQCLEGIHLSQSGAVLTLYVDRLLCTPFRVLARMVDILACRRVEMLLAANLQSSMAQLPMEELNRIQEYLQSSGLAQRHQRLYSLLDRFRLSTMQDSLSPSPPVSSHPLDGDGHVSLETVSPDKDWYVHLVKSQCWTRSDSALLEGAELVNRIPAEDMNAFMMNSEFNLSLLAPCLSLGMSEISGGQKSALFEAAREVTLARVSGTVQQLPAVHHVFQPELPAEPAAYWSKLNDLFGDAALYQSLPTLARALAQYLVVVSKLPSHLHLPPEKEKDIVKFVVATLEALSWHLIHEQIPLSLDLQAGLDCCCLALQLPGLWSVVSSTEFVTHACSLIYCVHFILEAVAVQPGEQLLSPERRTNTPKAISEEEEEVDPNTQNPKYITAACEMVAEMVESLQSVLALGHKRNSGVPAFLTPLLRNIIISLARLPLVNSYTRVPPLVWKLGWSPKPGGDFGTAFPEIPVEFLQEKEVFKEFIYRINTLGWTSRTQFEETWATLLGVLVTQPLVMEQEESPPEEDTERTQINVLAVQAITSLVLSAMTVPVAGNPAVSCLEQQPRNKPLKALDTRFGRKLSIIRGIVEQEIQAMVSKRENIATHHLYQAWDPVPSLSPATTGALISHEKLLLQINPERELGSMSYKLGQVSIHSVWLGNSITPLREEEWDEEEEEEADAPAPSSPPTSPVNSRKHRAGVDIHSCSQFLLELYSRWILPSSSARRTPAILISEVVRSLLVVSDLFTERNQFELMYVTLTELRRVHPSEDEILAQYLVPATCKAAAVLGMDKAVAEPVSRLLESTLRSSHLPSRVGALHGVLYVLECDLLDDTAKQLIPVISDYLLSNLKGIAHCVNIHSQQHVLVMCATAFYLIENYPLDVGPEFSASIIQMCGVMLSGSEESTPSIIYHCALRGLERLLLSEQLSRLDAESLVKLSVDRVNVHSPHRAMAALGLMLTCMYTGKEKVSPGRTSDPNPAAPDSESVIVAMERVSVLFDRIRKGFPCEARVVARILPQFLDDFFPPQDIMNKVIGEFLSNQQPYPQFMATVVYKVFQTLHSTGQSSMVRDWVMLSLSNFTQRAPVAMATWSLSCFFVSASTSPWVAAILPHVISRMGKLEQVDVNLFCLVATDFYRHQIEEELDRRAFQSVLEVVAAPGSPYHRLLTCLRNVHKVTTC

The target of assay [2] is T2, GFP-SNX20 (GFP-tagged full-length sorting nexin-20) (UniProt Q7Z614).
T2 sequence: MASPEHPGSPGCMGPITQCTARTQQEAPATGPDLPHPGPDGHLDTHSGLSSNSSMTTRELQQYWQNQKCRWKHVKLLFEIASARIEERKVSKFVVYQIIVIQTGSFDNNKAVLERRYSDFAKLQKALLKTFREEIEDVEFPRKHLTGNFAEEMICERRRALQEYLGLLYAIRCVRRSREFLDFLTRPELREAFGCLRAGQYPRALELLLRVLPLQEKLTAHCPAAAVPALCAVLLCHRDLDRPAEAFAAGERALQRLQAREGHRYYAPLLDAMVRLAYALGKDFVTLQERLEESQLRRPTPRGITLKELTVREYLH
As to the kind of experiment: co-IP; GFP-nanotrap precipitation of GFP-tagged constructs from transiently transfected HEK293-T lysates (50 mM Tris-HCl pH 7.4, 0.5% NP40), 1 h at 4°C; western blot for endogenous Htt and septins.

The target of assay [3] is T1, GFP-SNX21 (N-terminal GFP-tagged full-length human sorting nexin-21) (human). The assay is described as above.
The target in a further assay is T3, GFP-SNX21(1-129) (human) (UniProt Q969T3).
T3 sequence: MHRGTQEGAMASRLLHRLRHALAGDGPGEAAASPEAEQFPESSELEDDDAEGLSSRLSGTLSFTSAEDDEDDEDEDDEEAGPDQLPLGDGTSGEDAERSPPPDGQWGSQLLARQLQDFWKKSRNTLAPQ
The assay is described as above.

Assay [4] has as its target T4, GFP-SNX21(D48K, D49K) (human) (UniProt Q969T3).
T4 sequence: T1 sequence with D48K, D49K
The description is as above.

For another assay, the target named is T5, GFP-SNX21(D49K) (human) (UniProt Q969T3).
T5 sequence: T1 sequence with D49K
The assay is described as above.

The next assay addresses T6, GFP-SNX21(K364E) (human) (UniProt Q969T3).
T6 sequence: T1 sequence with K364E
The assay is described as above.

The target in a further assay is T7, GFP-SNX21(R171A) (human) (UniProt Q969T3).
T7 sequence: T1 sequence with R171A
The assay is described as above.

The target of assay [5] is T8, GFP-tagged isolated SNX21 PXB domain (residues 273-373) (human) (UniProt Q969T3).
T8 sequence: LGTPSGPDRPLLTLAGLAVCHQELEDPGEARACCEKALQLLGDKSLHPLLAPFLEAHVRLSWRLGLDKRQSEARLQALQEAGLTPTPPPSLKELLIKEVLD
The description is as above.

Numbering of substitutions follows the chain as printed. These are yes or no findings as the source states them, for the method shown. Binding seen in cells or lysates may run through a third protein. Some binding calls cover weakened binding; strength is not graded here. Where a sequence is shown, tags or fusion partners need not be part of it.

The text below walks through data of article PMC6140323.

As to “FLAG-tagged full-length Htt (from UniProt P42858 1-3142)”, in assay [1], the binding entry was “binds”.
Still for that read-out and setting: as for “FLAG-tagged Htt (1-588aa) (from UniProt P42858 1-588) (domain or fragment)”, the entry is “binds”.

B1: septin 7 (SEPT7), endogenous (protein, UniProt Q16181 1-437)
chain: MSVSARSAAAEERSVNSSTMVAQQKNLEGYVGFANLPNQVYRKSVKRGFEFTLMVVGESGLGKSTLINSLFLTDLYSPEYPGPSHRIKKTVQVEQSKVLIKEGGVQLLLTIVDTPGFGDAVDNSNCWQPVIDYIDSKFEDYLNAESRVNRRQMPDNRVQCCLYFIAPSGHGLKPLDIEFMKRLHEKVNIIPLIAKADTLTPEECQQFKKQIMKEIQEHKIKIYEFPETDDEEENKLVKKIKDRLPLAVVGSNTIIEVNGKRVRGRQYPWGVAEVENGEHCDFTILRNMLIRTHMQDLKDVTNNVHYENYRSRKLAAVTYNGVDNNKNKGQLTKSPLAQMEEERREHVAKMKKMEMEMEQVFEMKVKEKVQKLKDSEAELQRRHEQMKKNLEAQHKELEEKRRQFEDEKANWEAQQRILEQQNSSRTLEKNKKKGKIF
Regarding B1, the binding entry in [2] is “binds”; in [3], “binds”; with GFP-SNX21(1-129) (human) it was “no binding”; in assay [4], “binds”; in the assay with GFP-SNX21(D49K) (human) it was “binds”; in the assay with GFP-SNX21(K364E) (human) it was “binds”. For the same molecule, the binding entry is on record as “no binding” with GFP-SNX21(R171A) (human) and “binds” in assay [5].

B2: septin 9 (SEPT9), endogenous (protein, UniProt Q9UHD8 1-586)
chain: MKKSYSGGTRTSSGRLRRLGDSSGPALKRSFEVEEVETPNSTPPRRVQTPLLRATVASSTQKFQDLGVKNSEPSARHVDSLSQRSPKASLRRVELSGPKAAEPVSRRTELSIDISSKQVENAGAIGPSRFGLKRAEVLGHKTPEPAPRRTEITIVKPQESAHRRMEPPASKVPEVPTAPATDAAPKRVEIQMPKPAEAPTAPSPAQTLENSEPAPVSQLQSRLEPKPQPPVAEATPRSQEATEAAPSCVGDMADTPRDAGLKQAPASRNEKAPVDFGYVGIDSILEQMRRKAMKQGFEFNIMVVGQSGLGKSTLINTLFKSKISRKSVQPTSEERIPKTIEIKSITHDIEEKGVRMKLTVIDTPGFGDHINNENCWQPIMKFINDQYEKYLQEEVNINRKKRIPDTRVHCCLYFIPATGHSLRPLDIEFMKRLSKVVNIVPVIAKADTLTLEERVHFKQRITADLLSNGIDVYPQKEFDEDSEDRLVNEKFREMIPFAVVGSDHEYQVNGKRILGRKTKWGTIEVENTTHCEFAYLRDLLIRTHMQNIKDITSSIHFEAYRVKRLNEGSSAMANGMEEKEPEAPEM
Consider B2, for which the binding entry (in assay [3]; with GFP-SNX21(K364E) (human)) was “binds” throughout.

B3: septin 2 (SEPT2), endogenous (protein, UniProt Q15019 1-361)
chain: MSKQQPTQFINPETPGYVGFANLPNQVHRKSVKKGFEFTLMVVGESGLGKSTLINSLFLTDLYPERVIPGAAEKIERTVQIEASTVEIEERGVKLRLTVVDTPGYGDAINCRDCFKTIISYIDEQFERYLHDESGLNRRHIIDNRVHCCFYFISPFGHGLKPLDVAFMKAIHNKVNIVPVIAKADTLTLKERERLKKRILDEIEEHNIKIYHLPDAESDEDEDFKEQTRLLKASIPFSVVGSNQLIEAKGKKVRGRLYPWGVVEVENPEHNDFLKLRTMLITHMQDLQEVTQDLHYENFRSERLKRGGRKVENEDMNKDQILLEKEAELRRMQEMIARMQAQMQMQMQGGDGDGGALGHHV
On to B3, for which the binding entry in [2] is “binds”; in assay [3] it was “binds”; with GFP-SNX21(1-129) (human), “no binding”; in [4], “binds”; with GFP-SNX21(D49K) (human) it was “binds”; with GFP-SNX21(K364E) (human), “binds”. The binding entry with GFP-SNX21(R171A) (human) is listed as “no binding”; in assay [5] it was “binds”.
